The list shows a part of the results.
T1: UNK ZnF1-3 (human, UniProt Q9C0B0 31-174)
T1 sequence: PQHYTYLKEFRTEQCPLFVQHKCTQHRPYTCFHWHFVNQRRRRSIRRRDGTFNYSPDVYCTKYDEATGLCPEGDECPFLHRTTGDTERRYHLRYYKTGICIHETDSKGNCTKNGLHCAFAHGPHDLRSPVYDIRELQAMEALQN

B1: 5291315_5291435_1170_CDS_ENSG00000198081_ENST00000357006|human|control|control (ssRNA)
RNA: GGGAGUUCUACAGUCCGACGAUCUUUCUCAUGCUUCCUCAAUCUGCCUUCAUCAGAAAACGUCUUCCCACACGCCUGGCAGGCAAUCUGCUCCCGAUGGUGACCAUAAAGCAAAUACUCAAACUUCAUGUCACUGGCGGCUGUCAACAGAGGAUUGAGCAUCA
B2: 8611252_8611372_1238_CDS_ENSMUSG00000057880_ENSMUST00000065987|mouse|control|control (ssRNA)
RNA: GGGAGUUCUACAGUCCGACGAUCCUCCUCCUUGUGGAAGAAGCCCCCGGUCAUCAUUUUCUUGCUGAACGUCAUCACAUCGGCUGGGUCAUCCAAGCCCCAGUGUUCAUGGGCCCAGAACUUGCCUGUACAGCCUCCUCCGGUCAACAGAGGAUUGAGCAUCA
B3: chr12:28025581:28025582:-_ENSMUSG00000063632_ENSMUST00000079063|mus_hu|FALSE|FALSE (ssRNA)
RNA: GGGAGUUCUACAGUCCGACGAUCUCUCUUAAGAAAAAAAAAUAUCUCCACCAACUCCCUAGAGUAACAGUUGUGCUGCCAAAAGGGUCCUCUGCAGACGUCUUCCAGACUUCAAAGACCGACAAGCUUCAAACAGCGCCUUCCCAACAGAGGAUUGAGCAUCA
B4: chr6:114281168:114281169:-_ENSG00000196591_ENST00000368632|hu_hu|hu_hu_hu_mus_True|18_108 (ssRNA)
RNA: GGGAGUUCUACAGUCCGACGAUCUUCCAUUUUUCUGUAUAAACCAUAAUUUAGCAGCAAGUUAUGAGUCAUCCGGAUUCUAUGAGGCUUCAUGGGAUGACCCUGGCCAUAAUAAUAAUUUCCAAUAUCACCAUCAUAGUAGUACAACAGAGGAUUGAGCAUCA
B5: chr3:128532203:128532204:+_ENSG00000075785_ENST00000265062|hu_mus|FALSE|FALSE (ssRNA)
RNA: GGGAGUUCUACAGUCCGACGAUCACUGCAGCUUUCUGCGGAGGCCUUGGCCCGGUCAUUCUUGUCCAGUUUGAUGGGUUCAGGGAAUUCAUUGUACAGUUCCACUUCUGUUUCCUGUUUAAGGGCAUUCCGAGCAAUUGUCUGCAACAGAGGAUUGAGCAUCA
B6: chr16:32386223:32386224:+_ENSMUSG00000053774_ENSMUST00000115151|mus_mus|FALSE|FALSE (ssRNA)
RNA: GGGAGUUCUACAGUCCGACGAUCAAUACAAUUUGAAUGUGACUUUUGUUGGCAGAAAAAAAACCUCACAUCUGAAGAUUACUAGAAAUCUCUCUUAAUAACUGUUGUCGUAUGAACCAAAUUUGAAGGUCUUCCUCUUAGAGACAACAGAGGAUUGAGCAUCA
B7: chr7:44244176:44244177:+_ENSG00000106636_ENST00000223369|hu_mus|hu_hu_hu_mus_False|18_88 (ssRNA)
RNA: GGGAGUUCUACAGUCCGACGAUCACUGUCGCUCCGGACGUAGACAUGGCACAGAUACUCUUGUUCUUUGACAGAAGCUCUGCUGCCUUUCCCCGAGCGUUCCACAAUCAGUUGACUCGUGAAGGUCAUGAAUUCCUGCACACUCAACAGAGGAUUGAGCAUCA
B8: chr8:80578333:80578334:+_ENSG00000104435_ENST00000220876|hu_hu|FALSE|FALSE (ssRNA)
RNA: GGGAGUUCUACAGUCCGACGAUCAACUCCAAUUCUUUAUUAAUCACAGCUUGCUCACAAUGACAUACAGGAAAAUAGCACUAAUGAAGAGUAAAUAUGCAGGCAGCAACCUUCAGGAGUUGGGAGUUGGGGAGAAACGACUUCCAACAGAGGAUUGAGCAUCA
B9: chr3:176767854:176767855:-_ENSG00000177565_ENST00000430069|hu_hu|hu_hu_hu_mus_False|18_78 (ssRNA)
RNA: GGGAGUUCUACAGUCCGACGAUCGACAUCCUUGUUACUGGGCACGUCCUGCCCUCCUUCUCGUAUACAGUGUCUAAGCACGAGCUGCGUAGGGCCACUCGUGCUGUUCUCACUGAGAUUCCAUAUUCUUGCCGUGGAGUCUCCCAACAGAGGAUUGAGCAUCA
B10: 37380852_37383628_781_CDS_ENSG00000101442_ENST00000243903|human|control|control (ssRNA)
RNA: GGGAGUUCUACAGUCCGACGAUCAUAAUCAGGACACCGCCAUUUGUGUAAUUCUUCCACAUAAUCCUCAGCGAUGUAGCUGUGCUCAUGCAGAAUCUCCUCCAUGCGGCUGAGGGUGAUGGCUGCCAGGUGCCCAGGGUACUUCAACAGAGGAUUGAGCAUCA
B11: 63948079_63948331_9973_CDS_ENSG00000103657_ENST00000443617|human|control|control (ssRNA)
RNA: GGGAGUUCUACAGUCCGACGAUCGCUGGGUAGAAACUUUCGCUGAAUUGAGUCAUCAACUGUGGUUAGAUUUACACCUGUUGCAGCAGAAAUCAAGUUCUGUGUACACAACUGUACAAGCAGUUUGGCAGCACUAGGAGCAUUCAACAGAGGAUUGAGCAUCA
B12: chr3:185641624:185641625:-_ENSG00000136527_ENST00000456380|hu_mus|FALSE|FALSE (ssRNA)
RNA: GGGAGUUCUACAGUCCGACGAUCGGCACGUUCUUUAGCUUCCUUGGCAUCGUCUACAUUUUCAAAAUAUACAAAGGCAAAUCCUCUUGAACGUCUAGAUUGCUGGUCAUAUACAAUAGACACAUCAGCAAUGGGGCCAUAUUUCAACAGAGGAUUGAGCAUCA
B13: chr4:21803547:21803548:+_ENSMUSG00000028248_ENSMUST00000098238|mus_hu|FALSE|FALSE (ssRNA)
RNA: GGGAGUUCUACAGUCCGACGAUCCACUUCAAGAUUGAUCUAAAAAACAUUUUAAGAUAUGAAAAUGUUAUACAACUUAUCUAUUACAAAUUAAUCAGAUAAUUCUGCAAUUAGGUACACUGUGUUAGCUCGCCUACAUAAAAACAACAGAGGAUUGAGCAUCA
B14: 47371245_47371365_62_5pUTR_ENSG00000139684_ENST00000378720|human|control|control (ssRNA)
RNA: GGGAGUUCUACAGUCCGACGAUCUGGCGGAGUGACCAGAAGAAGCGGGCCGAAGUAAAAGGCGGGGCUCAAGAUGGCCGCCGGGGCCUCGCCUCAGCCCCGCCCAUAUGAUGCCCCGCCCCUCCGGUCCCACUCACUCUCGCUCAACAGAGGAUUGAGCAUCA

Biological target: T1, UNK ZnF1-3
Experiment: nsRBNS (natural sequence RNA bind-n-seq); RBNS binding buffer (assumed for nsRBNS): 25 mM Tris pH 7.5, 150 mM KCl, 3 mM MgCl2, 0.01% Triton X-100, 500 ug/ml BSA, 20 U/ml SUPERase-In, 4 C; UNK is unkempt and MSI1 is Musashi-1; names of the RNAs are library labels; protein concentration not given here; high values mean tight binding

Binder | binding signal
B1 | 1.09 enrichment R
B2 | 0.925 enrichment R
B3 | 1.66 enrichment R
B4 | 1.06 enrichment R
B5 | 0.73 enrichment R
B6 | 0.927 enrichment R
B7 | 0.463 enrichment R
B8 | 1.87 enrichment R
B9 | 0.303 enrichment R
B10 | 0.885 enrichment R
B11 | 1.41 enrichment R
B12 | 1.16 enrichment R
B13 | 1.01 enrichment R
B14 | 0.756 enrichment R
